In patent publication US9446018B2, “Pharmaceutical composition for treating or preventing angina or myocardial infarction induced by myocardial ischemia” (SINPHAR TIAN-LI PHARMACEUTICAL CO., LTD. (HANGZHOU), priority 2009, dated 2016):

Columns and labels:
Details in all cases: rat; 7 days + IP after ligation; isosorbide dinitrate 18.75 mg/Kg, STA-2 low dose 250 mg/Kg, Aspirin 8.3 mg/Kg; mean ± SEM
[1] = system: creatinine phosphokinase (CPK) in serum
[2] = system: nitric oxide (NO) in serum
[3] = system: lactate dehydrogenase (LDH) in serum

Compound: CC(=O)Oc1ccccc1C(=O)O [Aspirin]
- Serum CPK concentration (unit/ml) [1]: 7.14 ± 1.00 unit/ml
- Serum NO concentration [2]: 33.2 ± 2.90 µM
- Serum LDH concentration (unit/ml) [3]: 8.27 ± 1.05 unit/ml
